According to PubChem BioAssay AID485281 (National Center for Advancing Translational Sciences (NCATS), 2010):
Values joined by “and” are separate entries in the source; they are usually repeats but may differ in a detail not shown here. Equal entries are not always repeated. The campaign covered roughly 350,000 compounds. About 260 (0.074%) were called active. The inconclusive results got no clear call from the source; some entries with a clear call stand among them for comparison. Calls come from the whole dose curve; as a rule, active = well fitted inhibition curve with a large enough effect; inconclusive = small, poorly fitted or top-dose-only effect; inactive = no such curve, though single readings can be large or run the other way. Potencies beside an inconclusive call are fits to weak or partial responses and may not hold up.

Target: Ferritin light chain (Equus caballus) (UniProt P02791)
Experiment: qHTS Assay for Identification of Novel General Anesthetics; note: nearly all actives have a fitted effect of over 20% in size
Conditions: apoferritin/1-aminoanthracene competitive binding, fluorescence; activity change, negative = displacement: at 77.5 µM (top of the series)
How it was run: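 Read-out: endpoint 1-AMA fluorescence, excitation 380 nm and emission 535 nm, after compounds sit 10 min at room temperature with 10 uM horse-spleen apoferritin in 50% saturated 1-AMA/PBS. Values come from four-parameter Hill fits.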
% is set by controls: 0 for no effect and ±100 for the full control effect; potency is the fitted concentration of half-maximal effect; tags give direction and shape of the fitted curve.

UniProt P02791, sequence (P02791 whole entry, looked up): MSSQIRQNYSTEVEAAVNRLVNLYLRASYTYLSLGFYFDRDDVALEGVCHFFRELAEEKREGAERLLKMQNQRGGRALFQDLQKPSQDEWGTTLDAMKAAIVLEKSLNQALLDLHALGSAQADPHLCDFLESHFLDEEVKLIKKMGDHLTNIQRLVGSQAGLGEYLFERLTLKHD

SMILES	Potency	activity change, negative = displacement
O=C(Nc1ccc(NC(=O)c2cc3ccccc3o2)cc1)c1ccccc1	inactive	
CC1=C(C(=O)Nc2ccc(C)cc2C)C(c2ccccc2[N+](=O)[O-])n2ncc(C(=O)Nc3ccccc3)c2N1 (stereo unspecified)	inactive	
CCOC(=O)C1CCCN(C(=O)c2ccc3c(c2)N(Cc2ccccc2)C(=O)c2ccccc2S3(=O)=O)C1 (stereo unspecified)	inconclusive: 15.8 µM [inhibitor, partial curve]	
CC(=O)c1ccc(-c2ccc(C(=O)NC3CCCCCC3)o2)cc1	inconclusive: 22.4 µM [inhibitor, partial curve]	
O=C(CSc1nc2ccccc2c(=O)n1NC(=O)c1ccccc1)c1ccc(Cl)cc1	inconclusive: 31.6 µM [inhibitor, partial curve]	
CCOc1ccccc1-c1nc(C(N)=O)c2[nH]c(=O)n(-c3cccc(C)c3)c2n1	inconclusive: 31.6 µM [inhibitor, partial curve]	
CSc1ncccc1C(=O)OCC(=O)c1ccccc1Br	inconclusive: 35.5 µM [inhibitor, partial curve]	
COc1ccc(NS(=O)(=O)c2cccc(NC(=O)c3cnccn3)c2)cc1Br	inconclusive: 28.2 µM [inhibitor, partial curve]	
COc1ccc(Cl)cc1C(=O)NCc1ccc2c(c1)OCO2	inconclusive: 25.1 µM [inhibitor, partial curve]	
Cc1ccc(CNC(=O)c2cc(COc3c(F)cccc3F)on2)s1	active: 12.6 µM	
Cc1nc2cc(S(=O)(=O)C(F)(F)F)ccc2s1	inconclusive: 50.1 µM [inhibitor, single point]	
Cc1nn(C)cc1C(C(=O)NC1CCCCC1)N(C(=O)Cc1cccs1)c1ccc(C(C)C)cc1 (stereo unspecified)	inconclusive: 35.5 µM [inhibitor, partial curve]	
C/C=C1\C(=O)CC2C3CCC4=CC(=O)CC[C@]4(C)C3CC[C@]12C (stereo partly specified)	inconclusive: 35.5 µM [inhibitor, partial curve]	
Cc1cc2c(ncn2Cc2ccccc2)c([N+](=O)[O-])c1C	inconclusive: 28.2 µM [inhibitor, partial curve]	
CCCCCc1ccc(OCCC[n+]2ccccc2)c(CCCCC)c1	inactive	
Cc1ccc(C(NC(=O)N2CCCC2)C(Cl)Cl)cc1F (stereo unspecified)	inconclusive: 22.4 µM [inhibitor, partial curve]	
Cc1ccc(-n2cccn2)c(CN2CCCC(C(=O)c3sccc3C)C2)c1 (stereo unspecified)	inactive	
O=C1C2C(C(=O)N1/N=C/c1cccc([N+](=O)[O-])c1)C1C=CC2C12CC2 (stereo unspecified)	inconclusive: 20 µM [inhibitor, single point]	
Cc1ccccc1CNC(=O)c1ccc(-n2c(C)cc3c2CCCC3)cc1	inactive	
COc1cc(C2c3cc4c(cc3C(OC3OC5COC(C)O[C@@H]5C(O)C3O)C3COC(=O)C23)OCO4)cc(OC)c1O (stereo partly specified)	inactive	
Cc1ccc(NC(=O)COC(=O)C2COc3ccccc3O2)cc1S(=O)(=O)N1CCOCC1 (stereo unspecified)	inconclusive: 50.1 µM [inhibitor, single point]	
COc1ccc(-c2csc(NC(=O)c3ccccc3F)c2C(=O)O)cc1	inactive	

SMILES	Potency	activity change, negative = displacement
O=C(c1ccccc1)N1CCCCC(Cl)C1=O (stereo unspecified)	inconclusive: 28.2 µM [inhibitor, partial curve]	
CCCCN(C)CCNC(=O)c1cc(-c2cccnc2)nc2ccc(S(=O)(=O)N3CCC(C)CC3)cc12	inconclusive: 5.62 µM [inhibitor, full curve]	
Clc1ccc(CNc2cnccn2)cc1	inconclusive: 35.5 µM [inhibitor, partial curve]	
O=C(CCC(=O)OCc1ccc(Cl)cc1)Nc1cccc([N+](=O)[O-])c1	inconclusive: 35.5 µM [inhibitor, partial curve]	
CCC(C(=O)Nc1cccc(-c2cn3cccnc3n2)c1)c1ccccc1 (stereo unspecified)	inactive	
CC1=C(C)C(=O)C(CCCCC#CCCCC#CCO)=C(C)C1=O	inconclusive: 35.5 µM [inhibitor, single point]	
Cc1cccc(-c2nnc(-c3ccccc3)o2)c1	inconclusive: 44.7 µM [inhibitor, single point]	
Cc1ccc(NCC(=O)N/N=C/c2ccc(-c3cccc(C(F)(F)F)c3)o2)cc1	inconclusive: 39.8 µM [inhibitor, single point]	
CCOC(=O)Cc1csc(NC(=O)c2csc3c2CCCC3)n1	inconclusive: 25.1 µM [inhibitor, partial curve]	
Cc1ccc(S(=O)(=O)n2nc(OC(=O)c3cccs3)cc2N)cc1	inconclusive: 14.1 µM [inhibitor, partial curve]	
O=C(NC1=C(Nc2ccc(Cl)cc2)C(=O)c2ccccc2C1=O)c1ccccc1	inconclusive: 31.6 µM [inhibitor, single point]	
Cc1ccc(NC(=S)NC(=O)C2CC2)cc1Cl	inconclusive: 31.6 µM [inhibitor, partial curve]	
CCC(C)c1ccccc1OCC(=O)NN1C(=O)c2ccccc2C1=O (stereo unspecified)	inconclusive: 25.1 µM [inhibitor, partial curve]	
CCc1sc(C(=O)NCc2ccccc2)cc1C	inconclusive: 28.2 µM [inhibitor, partial curve]	
CCOc1cc(S(=O)(=O)NCc2ccccc2)ccc1Br	inconclusive: 25.1 µM [inhibitor, partial curve]	
COc1ccc(OC)c(NC(=O)c2csnn2)c1	inactive	
CC1(C(=O)N/N=C/c2cc3c(cc2Br)OCO3)CC1(Br)Br (stereo unspecified)	inconclusive: 14.1 µM [inhibitor, partial curve]	
O=c1n(-c2ccccc2)c(=O)n2n1CC[C@H]1/C(=N\OC[C@@H](O)COCc3ccco3)[C@H]3O[C@@H]3[C@@H](O)[C@@H]12		inactive: -7.55% [at 15.3 µM] and inactive: 1.4% [at 15.3 µM]
O=C(CSc1nnc(-c2c[nH]c3ccccc23)o1)N1CCCCC1	inconclusive: 20 µM [inhibitor, partial curve]	
CN(C)S(=O)(=O)Nc1ccc2c(c1)Cc1ccccc1-2	inconclusive: 28.2 µM [inhibitor, partial curve]	
Cc1cc(C)cc(-n2nnc(C(=O)NCc3ccc4c(c3)OCO4)c2N)c1	inconclusive: 39.8 µM [inhibitor, single point]	
Cc1nn(Cc2ccccc2Cl)c(C)c1NC(=O)c1noc2c1CCCCC2	inconclusive: 39.8 µM [inhibitor, partial curve]	

SMILES	Potency	activity change, negative = displacement
O=C(CCN1C(=O)/C(=C/c2ccccc2Cl)SC1=S)N1CCCC1	inactive	
CC(CCN(C)C)OC(=O)c1ccc(C(C)c2ccccc2)o1 (stereo unspecified)	inconclusive: 17.8 µM [inhibitor, partial curve]	
O=[N+]([O-])c1ccccc1CN1CCN(Cc2ccc3ccccc3c2)CC1	inactive	
O=C(c1ccc(F)cc1)[C@@H]1[C@@H](C(=O)c2ccccc2)[C@@]2(C(=O)Nc3ccccc32)[C@H]2c3ccccc3C=CN12	inconclusive: 14.1 µM [inhibitor, partial curve]	
c1ccc(CCn2nnnc2CN2CCCc3ccccc32)cc1	inconclusive: 28.2 µM [inhibitor, partial curve]	
CCOC(=O)C1=C(CSc2nc(CC)c(C)cc2C#N)OC(N)=C(C#N)C1c1ccc(OC)cc1 (stereo unspecified)	inconclusive: 31.6 µM [inhibitor, single point]	
CN(C)CCCN(C(=O)/C=C/c1cccs1)c1nc2c(F)cccc2s1	inactive	
Cc1ccc(N2C(=O)C3CCC(C)(C2=O)C3(C)C)cc1 (stereo unspecified)	inactive	
CCOc1ccc(NC2=NCC(=O)N2CCc2ccccc2)cc1	inconclusive: 35.5 µM [inhibitor, single point]	
CCOC(=O)c1cnn(-c2ccccc2)c1-n1cccc1C(=O)C(=O)Nc1ccccc1C(F)(F)F	inconclusive: 31.6 µM [inhibitor, partial curve]	
CCOc1cc(CNc2ccc(O)cc2)cc(Br)c1OCc1ccccc1	inconclusive: 4.47 µM [inhibitor, full curve]	
Cc1cc(Nc2cccc(Cl)c2C)n2nc(Cc3ccccc3)nc2n1	inconclusive: 50.1 µM [inhibitor, single point]	
O=C(NC(=S)Nc1cccc(C(F)(F)F)c1)c1ccc2nonc2c1	inconclusive: 25.1 µM [inhibitor, partial curve]	
O=C(CN1CCCCCCC1)NC(=O)NC1CCCCC1	inconclusive: 25.1 µM [inhibitor, single point]	
COc1ccc(CNC(=O)c2cnn3c(C)c(Cc4ccc(F)cc4)c(C)nc23)cc1	inactive	
C=CCOC(=O)C1=C(C)NC(SC)=C(C#N)C1c1cccs1 (stereo unspecified)	inconclusive: 39.8 µM [inhibitor, partial curve, poor fit]	
O[C@@H]1C2CCCC1[C@]1(O)CCCCC1C2 (stereo partly specified)	inconclusive: 22.4 µM [inhibitor, partial curve]	
O=C(OCC1COc2ccccc2O1)c1c(F)cccc1F (stereo unspecified)	inconclusive: 20 µM [inhibitor, partial curve]	
O=C(COc1cc2oc(=O)c3c(c2cc1Cl)CCC3)NCC(O)c1ccccc1 (stereo unspecified)	inconclusive: 6.31 µM [inhibitor, partial curve]	
CCC(C(=O)OCc1cc(=O)n2nc(CCOC)sc2n1)c1ccccc1 (stereo unspecified)	inconclusive: 22.4 µM [inhibitor, partial curve]	
Cc1ccccc1NC(=O)c1nc(-c2ccncc2)no1	inconclusive: 3.16 µM [inhibitor, partial curve]	
CC(C)c1onc(C(=O)N(C)Cc2ccccc2)c1[N+](=O)[O-]	inconclusive: 39.8 µM [inhibitor, single point]	
